# The list shows a part of the results.
# Tests used:
# Assay in all cases: glycan array binding signal (z-score within array); higher = stronger binding
# Conditions in all cases: glycan notation: IUPAC condensed, linker removed
# [1] = molecular target: Gal(b1-4)GlcNAc(b1-3)Gal(b1-4)GlcNAc(b1-3)Gal(b1-4)GlcNAc(b1-3)Gal(b1-4)GlcNAc(b1-2)Man(a1-3)[Gal(b1-4)GlcNAc(b1-3)Gal(b1-4)GlcNAc(b1-3)Gal(b1-4)GlcNAc(b1-3)Gal(b1-4)GlcNAc(b1-2)Man(a1-6)]Man(b1-4)GlcNAc(b1-4)GlcNAc
# In short: (§1)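 The Consortium for Functional Glycomics database supplied 3228 glycan arrays, of which those lacking an available protein sequence were dropped. The binding signal, a within-array Z-score, was averaged across arrays of the same protein sequence and across linkers. Negative scores can be read as non-binding.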
# [2] = molecular target: Gal(b1-4)GlcNAc(b1-3)Gal(b1-4)GlcNAc(b1-3)Gal(b1-4)GlcNAc(b1-3)Gal(b1-4)GlcNAc(b1-2)Man(a1-3)[Gal(b1-4)GlcNAc(b1-3)Gal(b1-4)GlcNAc(b1-3)Gal(b1-4)GlcNAc(b1-3)Gal(b1-4)GlcNAc(b1-2)Man(a1-6)]Man(b1-4)GlcNAc(b1-4)[Fuc(a1-6)]GlcNAc
# In short: as §1
# [3] = molecular target: Gal(b1-4)GlcNAc(b1-3)Gal(b1-4)GlcNAc(b1-3)Gal(b1-4)GlcNAc(b1-3)Gal(b1-4)GlcNAc(b1-2)[Gal(b1-4)GlcNAc(b1-3)Gal(b1-4)GlcNAc(b1-3)Gal(b1-4)GlcNAc(b1-3)Gal(b1-4)GlcNAc(b1-6)]Man(a1-6)[Gal(b1-4)GlcNAc(b1-3)Gal(b1-4)GlcNAc(b1-3)Gal(b1-4)GlcNAc(b1-3)Gal(b1-4)GlcNAc(b1-2)Man(a1-3)]Man(b1-4)GlcNAc(b1-4)[Fuc(a1-6)]GlcNAc
# In short: as §1
# [4] = molecular target: Gal(b1-4)GlcNAc(b1-3)Gal(b1-4)GlcNAc(b1-3)Gal(b1-4)GlcNAc(b1-3)Gal(b1-4)GlcNAc(b1-3)Gal(b1-4)GlcNAc(b1-2)Man(a1-3)[Gal(b1-4)GlcNAc(b1-3)Gal(b1-4)GlcNAc(b1-3)Gal(b1-4)GlcNAc(b1-3)Gal(b1-4)GlcNAc(b1-3)Gal(b1-4)GlcNAc(b1-2)Man(a1-6)]Man(b1-4)GlcNAc(b1-4)GlcNAc
# In short: as §1
# [5] = molecular target: Gal(b1-4)GlcNAc(b1-3)Gal(b1-4)GlcNAc(b1-3)Gal(b1-4)GlcNAc(b1-3)Gal(b1-4)GlcNAc(b1-3)Gal(b1-4)GlcNAc(b1-2)Man(a1-3)[Gal(b1-4)GlcNAc(b1-3)Gal(b1-4)GlcNAc(b1-3)Gal(b1-4)GlcNAc(b1-3)Gal(b1-4)GlcNAc(b1-3)Gal(b1-4)GlcNAc(b1-2)Man(a1-6)]Man(b1-4)GlcNAc(b1-4)[Fuc(a1-6)]GlcNAc
# In short: as §1
# [6] = molecular target: Gal(b1-4)GlcNAc(b1-3)Gal(b1-4)GlcNAc(b1-3)Gal(b1-4)GlcNAc(b1-3)Gal(b1-4)GlcNAc(b1-3)Gal(b1-4)GlcNAc(b1-2)[Gal(b1-4)GlcNAc(b1-3)Gal(b1-4)GlcNAc(b1-3)Gal(b1-4)GlcNAc(b1-3)Gal(b1-4)GlcNAc(b1-3)Gal(b1-4)GlcNAc(b1-6)]Man(a1-6)[Gal(b1-4)GlcNAc(b1-3)Gal(b1-4)GlcNAc(b1-3)Gal(b1-4)GlcNAc(b1-3)Gal(b1-4)GlcNAc(b1-3)Gal(b1-4)GlcNAc(b1-2)Man(a1-3)]Man(b1-4)GlcNAc(b1-4)[Fuc(a1-6)]GlcNAc
# In short: as §1
# [7] = molecular target: Gal(b1-4)GlcNAc(b1-3)Gal(b1-4)GlcNAc(b1-3)Gal(b1-4)GlcNAc(b1-3)Gal(b1-4)GlcNAc(b1-3)Gal(b1-4)GlcNAc(b1-3)Gal(b1-4)GlcNAc(b1-2)Man(a1-3)[Gal(b1-4)GlcNAc(b1-3)Gal(b1-4)GlcNAc(b1-3)Gal(b1-4)GlcNAc(b1-3)Gal(b1-4)GlcNAc(b1-3)Gal(b1-4)GlcNAc(b1-3)Gal(b1-4)GlcNAc(b1-2)Man(a1-6)]Man(b1-4)GlcNAc(b1-4)GlcNAc
# In short: as §1
# [8] = molecular target: Gal(b1-4)GlcNAc(b1-3)Gal(b1-4)GlcNAc(b1-3)GalNAc
# In short: as §1
# [9] = molecular target: Gal(b1-4)GlcNAc(b1-3)Gal(b1-4)GlcNAc(b1-3)[Gal(b1-4)GlcNAc(b1-3)Gal(b1-4)GlcNAc(b1-6)]GalNAc
# In short: as §1
# [10] = molecular target: Gal(b1-4)GlcNAc(b1-3)Gal(b1-4)GlcNAc(b1-6)[Gal(b1-3)]GalNAc
# In short: as §1
# [11] = molecular target: Gal(b1-4)GlcNAc(b1-3)Gal(b1-4)[Fuc(a1-3)]GlcNAc(b1-3)Gal(b1-4)[Fuc(a1-3)]GlcNAc
# In short: as §1
# [12] = molecular target: Gal(b1-4)GlcNAc(b1-3)GalNAc
# In short: as §1
# [13] = molecular target: Gal(b1-4)GlcNAc(b1-3)[Fuc(a1-3)GlcNAc(b1-6)]Gal(b1-4)Glc
# In short: as §1
# [14] = molecular target: Gal(b1-4)GlcNAc(b1-3)[Gal(b1-4)GlcNAc(b1-6)]Gal(b1-4)GlcNAc
# In short: as §1
# [15] = molecular target: Gal(b1-4)GlcNAc(b1-3)[GlcNAc(b1-6)]Gal(b1-4)GlcNAc
# In short: as §1
# [16] = molecular target: Gal(b1-4)GlcNAc(b1-6)Gal(b1-4)GlcNAc
# In short: as §1
# [17] = molecular target: Gal(b1-4)GlcNAc(b1-6)GalNAc
# In short: as §1
# [18] = molecular target: Gal(b1-4)GlcNAc(b1-6)[Gal(b1-3)]GalNAc
# In short: as §1
# [19] = molecular target: Gal(b1-4)GlcNAc(b1-6)[Gal(b1-4)GlcNAc(b1-3)]GalNAc
# In short: as §1
# [20] = molecular target: Gal(b1-4)GlcNAc6P
# In short: as §1
# [21] = molecular target: Gal(b1-6)Gal
# In short: as §1
# [22] = molecular target: Gal3S(b1-3)GalNAc
# In short: as §1
# [23] = molecular target: Gal3S(b1-3)GlcNAc
# In short: as §1
# [24] = molecular target: Gal3S(b1-3)[Fuc(a1-4)]GlcNAc
# In short: as §1
# [25] = molecular target: Gal3S(b1-4)Glc
# In short: as §1
# [26] = molecular target: Gal3S(b1-4)Glc6S
# In short: as §1
# [27] = molecular target: Gal3S(b1-4)GlcNAc
# In short: as §1
# [28] = molecular target: Gal3S(b1-4)[Fuc(a1-3)]Glc6S
# In short: as §1
# [29] = molecular target: Gal3S(b1-4)[Fuc(a1-3)]GlcNAc
# In short: as §1
# [30] = molecular target: Gal3S(b1-4)[Fuc(a1-3)]GlcNAc6S
# In short: as §1
# [31] = molecular target: Gal3S4S(b1-4)GlcNAc
# In short: as §1
# [32] = molecular target: Gal3S6S(b1-4)GlcNAc
# In short: as §1
# [33] = molecular target: Gal3S6S(b1-4)GlcNAc6S
# In short: as §1
# [34] = molecular target: Gal4S(b1-4)GlcNAc
# In short: as §1
# [35] = molecular target: Gal4S6S(b1-4)GlcNAc
# In short: as §1
# [36] = molecular target: Gal6P(b1-4)GlcNAc
# In short: as §1
# [37] = molecular target: Gal6S(b1-3)GlcNAc
# In short: as §1
# [38] = molecular target: Gal6S(b1-3)GlcNAc6S
# In short: as §1
binder,measurement,setting,value
"Als1 (Candida albicans), P46590 (protein) KTITGVFDSFNSLTWSNAANYAFKGPGYPTWNAVLGWSLDGTSANPGDTFTLNMPCVFKYTTSQTSVDLTADGVKYATCQFYSGEEFTTFSTLTCTVNDALKSSIKAFGTVTLPIAFNVGGTGSSTDLEDSKCFTAGTNTVTFNDGDKDISIDVEFEKSTVDPSGYLYASRVMPSLNKVTTLFVAPQCENGYTSGTMGFSSSNGDVAIDCSNIHIGITKGLNDWNYPVSSESFSYTKTCTSNGIQIKYQNVPAGYRPFIDAYISATDVNQYTLAYTNDYTCAGSRLQSKPFTLRWTGYKNSDAGSNGIVIVATTRTVTDSTTAVTTLPFNPSVDKTKTIEILQPIPTTTITTSYVGVTTSYLTKTAPIGETATVIVDVPYHTTTTVTSEWTGTITTTTTRTNPTDSIDTVVVQVP",glycan array binding signal (z-score),[1],-0.434
same,glycan array binding signal (z-score),[2],-0.442
same,glycan array binding signal (z-score),[3],0.138
same,glycan array binding signal (z-score),[4],-0.26
same,glycan array binding signal (z-score),[5],-0.239
same,glycan array binding signal (z-score),[6],-0.126
same,glycan array binding signal (z-score),[7],0.041
same,glycan array binding signal (z-score),[8],0.648
same,glycan array binding signal (z-score),[9],0.316
same,glycan array binding signal (z-score),[10],0.488
same,glycan array binding signal (z-score),[11],-0.244
same,glycan array binding signal (z-score),[12],-0.474
same,glycan array binding signal (z-score),[13],-0.538
same,glycan array binding signal (z-score),[14],0.289
same,glycan array binding signal (z-score),[15],-0.604
same,glycan array binding signal (z-score),[16],0.551
same,glycan array binding signal (z-score),[17],-0.289
same,glycan array binding signal (z-score),[18],-0.286
same,glycan array binding signal (z-score),[19],-0.399
same,glycan array binding signal (z-score),[20],-0.644
same,glycan array binding signal (z-score),[21],-0.739
same,glycan array binding signal (z-score),[22],0.272
same,glycan array binding signal (z-score),[23],-0.202
same,glycan array binding signal (z-score),[24],0.026
same,glycan array binding signal (z-score),[25],-0.706
same,glycan array binding signal (z-score),[26],-0.394
same,glycan array binding signal (z-score),[27],0.691
same,glycan array binding signal (z-score),[28],0.493
same,glycan array binding signal (z-score),[29],0.517
same,glycan array binding signal (z-score),[30],0.157
same,glycan array binding signal (z-score),[31],2.59
same,glycan array binding signal (z-score),[32],2.86
same,glycan array binding signal (z-score),[33],3.22
same,glycan array binding signal (z-score),[34],0.401
same,glycan array binding signal (z-score),[35],0.129
same,glycan array binding signal (z-score),[36],-0.562
same,glycan array binding signal (z-score),[37],-0.329
same,glycan array binding signal (z-score),[38],0.39

# — the supplement of paper PMC8728848
